This passage reports switch fluorescence ratio results from the supplement of paper PMC10126150.

The data set has as its system ATP. Put plainly: switch fluorescence ratio, 500 uM ATP over buffer (Cy3 cluster intensity, sum of 5 cycles each) (fold (ratio)); higher = stronger signal-on switching upon ATP binding; sequences stand for … in TCGTCGGCAGCGTCAGATGTGTATAAGAGACAGTTTTTTTTTTTTTTTTTTTTTTTTT…TC. The note with it: aptamer strand: ATP DNA aptamer (quencher-CACCTGGGGGAGTATTGCGGAGGAAGG + anchor), 100 nM annealed; ATP concentration: 500 uM; one replicate. The gist of the method: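 Between each of five buffer/ATP cycles, the flow-cell was stripped with NaOH and re-annealed. Each cycle imaged Cy3-labelled switching-strand clusters, annealed to 100 nM quencher-labelled ATP aptamer on a modified Illumina MiSeq flow-cell, first in selection buffer and then after 15 min with 500 uM ATP at 22 °C. The fluorescence ratio is summed target-cycle over summed buffer-cycle Cy3 intensity per cluster, averaged per switch-domain sequence, with clusters outside 100-1000 RFU excluded.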

Values marked as one replicate rest on one cluster of the flow cell; about a third of the high ones do not repeat.
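Also: ATP exposure 15 min at 22 °C before imaging.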

For the sequence ATGTTGTGGC, the switch fluorescence ratio amounted to 1.2. On to TAACCAACA, for which the switch fluorescence ratio was 1.09. The same measure for TGACACTTCA: 1.1; for CAGTGCTAGG: 0.983. The same measure for GGAGGCCTAG: 0.985; for TATGGATTAC: 1.01; for CAGCTGAACT: 0.998. On to ACCGTGGCGG, for which the switch fluorescence ratio was 0.971. For CAGGAGCTCT the value was 1.08; for TCCGTAGGGT, 1.03. For ACTGTGGTTA the value was 0.997. For GACTAGGAGT the value was 0.985. For GGCTAAATTA, the switch fluorescence ratio was found to be 0.974. Consider CATCGCCTTG, for which the switch fluorescence ratio turned out to be 0.993.

Consider TACAGATTGT, for which the switch fluorescence ratio worked out at 1.05. Regarding GTTGTCAATC, the switch fluorescence ratio is 1.09. For the sequence TACACTTAAT, the switch fluorescence ratio worked out at 1.03. The same measure for TATGTTAGT: 0.966; for GCGGGAGCAT: 0.962; for TCGATTGTCT: 1.02.

For TTAGGTCAAG, the switch fluorescence ratio was determined as 0.99. For the sequence CGACGGGGTA, the switch fluorescence ratio came out at 1.37. The same measure for ATCGTGGAG: 1.02; for TCAGACCCTG: 0.95; for GTCAGGATAC: 1.22. The same measure for GCTAAAATAA: 1. The same measure for ATGTATATA: 1.01; for AAAGTACGGG: 1.21. On to GTAAATTCAA, for which the switch fluorescence ratio was found to be 1.03. As for TGGGTTCACA, the switch fluorescence ratio stood at 1.01. The same measure for ATTCATAGCT: 1; for AGGGTAACTC: 1.02; for TAAGTTAATT: 1.05. The same measure for AGTTACATGC: 1.01; for ACGACATGAC: 1.49; for CTTCACTCCG: 4.38.

For TGCCTGGAT, the switch fluorescence ratio was 0.969. With CTGAGGATGA, the switch fluorescence ratio turned out to be 1.01. For CCATTAAAGG the value was 1.02; for AGAAGACGTG, 0.945.

With GATGCATCTG, the switch fluorescence ratio came out at 0.953. For TACGAGACGT the value was 1.15; for ATTATTTGCG, 1.04; for AACCTGGGTG, 1.81.

With TTGAGGCGAA, the switch fluorescence ratio worked out at 1.22. Regarding GGTGTACTGC, the switch fluorescence ratio came out at 0.962. For TAGGCTAAAG the value was 1.01; for GAATGGTGTC, 1.01. Consider GATTGATGGC, for which the switch fluorescence ratio is 1.01.

For the sequence GAGTAGGAAA, the switch fluorescence ratio turned out to be 1.01. For ACGGACACCC the value was 1.48. ACGTGAGGGT: the switch fluorescence ratio was 1.06.

Regarding ATTTACTGGA, the switch fluorescence ratio stood at 0.969.

Take GCCAAAGGTT: the switch fluorescence ratio was 1.02.

In the case of GATTGGAGTT, the switch fluorescence ratio was 1.02. For AACATGTGGG the value was 0.99; for ATGTGGTGGG, 1.1. The same measure for CTGGACCT: 1.33; for ACTAGAGTAT: 1.04. The same measure for TTCGGTAGAG: 0.991. For GGGGTCTGGA, the switch fluorescence ratio was 1.01. The same measure for CATTACGATT: 1.05.

As for TTCCTGGTA, the switch fluorescence ratio is 1.

With TGGAGTTATT, the switch fluorescence ratio turned out to be 1.01.

Regarding GCGGGACACG, the switch fluorescence ratio came to 0.964.

With TGCGTAACAG, the switch fluorescence ratio was 1.01.

As for GCTTGGGAT, the switch fluorescence ratio was 0.994.

As for AGAGAGATAG, the switch fluorescence ratio came out at 0.967. The same measure for TAACAGGCGA: 1.17; for CATTTAACGG: 1.01; for TGATGTGTT: 1.03. For ATGCTCGGT the value was 1.01; for TTTCTTCCGG, 1.11; for GTTATATTCG, 1.05. With ATGGTGATTA, the switch fluorescence ratio is 1.02.

As to ACGTATATGG, the switch fluorescence ratio came to 1.16.

For the sequence TACACGCACG, the switch fluorescence ratio came out at 1.74.

Take GTATACATAC: the switch fluorescence ratio is 1.12.

For TACGTAGAT, the switch fluorescence ratio amounted to 1.04.
